In publication PMC4336329 (PLoS ONE, 2015):
Screen size: about 310,000 compounds; about 2,200 (0.71%) showed an effect of 50% or more. The effect is printed as a negative number. The list shows a part of the results.

Biological target: human ether-à-go-go-related gene (hERG) potassium channel (human, UniProt Q12809)
Assay: primary screen, population patch clamp on CHO cells stably expressing hERG

Sequence of human ether-à-go-go-related gene (hERG) potassium channel (Q12809 whole entry, looked up): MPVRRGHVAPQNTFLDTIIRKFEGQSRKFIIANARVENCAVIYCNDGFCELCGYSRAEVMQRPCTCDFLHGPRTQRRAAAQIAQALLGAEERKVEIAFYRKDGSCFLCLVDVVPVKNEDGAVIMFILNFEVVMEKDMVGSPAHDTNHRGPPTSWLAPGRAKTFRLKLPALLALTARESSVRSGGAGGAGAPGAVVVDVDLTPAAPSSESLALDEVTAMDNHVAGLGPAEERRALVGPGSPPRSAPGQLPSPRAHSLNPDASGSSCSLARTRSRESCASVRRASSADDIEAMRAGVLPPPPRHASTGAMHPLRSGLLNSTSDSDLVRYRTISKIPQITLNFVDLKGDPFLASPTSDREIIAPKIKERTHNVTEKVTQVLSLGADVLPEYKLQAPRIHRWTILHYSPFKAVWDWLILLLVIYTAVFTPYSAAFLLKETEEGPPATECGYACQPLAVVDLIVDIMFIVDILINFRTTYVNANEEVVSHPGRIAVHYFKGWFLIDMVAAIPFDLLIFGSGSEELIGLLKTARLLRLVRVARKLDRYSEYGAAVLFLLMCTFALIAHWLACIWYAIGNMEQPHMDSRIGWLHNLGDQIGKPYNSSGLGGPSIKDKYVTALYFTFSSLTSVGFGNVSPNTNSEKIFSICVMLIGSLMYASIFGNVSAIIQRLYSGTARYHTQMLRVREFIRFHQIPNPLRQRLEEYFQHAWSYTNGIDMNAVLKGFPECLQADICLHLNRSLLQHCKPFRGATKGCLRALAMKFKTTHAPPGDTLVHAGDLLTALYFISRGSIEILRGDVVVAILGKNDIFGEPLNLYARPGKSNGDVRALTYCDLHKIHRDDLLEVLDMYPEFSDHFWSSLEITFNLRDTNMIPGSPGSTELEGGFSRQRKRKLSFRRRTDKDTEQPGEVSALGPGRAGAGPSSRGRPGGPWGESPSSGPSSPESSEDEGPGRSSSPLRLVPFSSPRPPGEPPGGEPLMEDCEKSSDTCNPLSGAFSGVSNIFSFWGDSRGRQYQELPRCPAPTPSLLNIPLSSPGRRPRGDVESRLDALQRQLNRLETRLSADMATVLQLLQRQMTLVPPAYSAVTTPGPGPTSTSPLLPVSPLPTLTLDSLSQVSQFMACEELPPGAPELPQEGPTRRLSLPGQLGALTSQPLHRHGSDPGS

Row | SMILES | hERG current change (%, negative = inhibition) at 1uM
1 | O=C(N/N=C/c1ccncc1)c1ccccn1 | 8.56%
2 | O=C(c1ccccc1)N1CCN(S(=O)(=O)N2CCCCCC2)CC1 | 9.57%
3 | O=C1CCCC(O)=C1C1C2=C(CCCC2=O)OC2=C1C(=O)CCC2 | 17%
4 | Nc1ncc(-c2ccccc2)n1CC1CCCO1 (stereo not shown) | 8.5%
5 | OCC1C2c3ccccc3C(c3ccccc32)C1CO (stereo not shown) | 11.6%
6 | CCOC(=O)CCC(=O)Nc1ccc([N+](=O)[O-])cc1C | 4.89%
7 | CC(C)CNC(=O)c1cc2nc(C3CC3)cc(C(F)(F)F)n2n1 | 15.5%
8 | CCOC(=O)c1nc(-c2ccccc2)oc1N(C)C | -3.84%
9 | CCC(C(=O)N1CCC(C(N)=O)CC1)n1nc(C)n2c(cc3occc32)c1=O (stereo not shown) | -1.4%
10 | CS(=O)(=O)NCCCNc1ccc(C(F)(F)F)cc1[N+](=O)[O-] | 0.672%
11 | O=c1c(C=NCCCO)c(-c2ccccc2)[nH]n1-c1nc2ccccc2s1 | -2.36%
12 | Nc1ncc(Br)cc1Br | 11.1%
13 | O=C(c1ccccc1)C1CN(Cc2ccccc2)CCC1(O)c1ccccc1 (stereo not shown) | 14.3%
14 | CN(C)c1ccc(C(=O)NC2(N3CCC3=O)CCCC2)cc1 | 11.2%
15 | O=C(NCCN1CCN(c2ccccc2)CC1)c1ccc2c(c1)[nH]c(=S)n1c3ccccc3nc21 | 6.72%
16 | O=C(NCCc1cccc(Cl)c1)c1cccc([N+](=O)[O-])c1 | 2.77%
17 | N=c1c(C(=O)NC2CCCCC2)cc2c(=O)n3ccccc3nc2n1Cc1cccnc1 | -50.6%
18 | COc1ccccc1CN1CC(C(=O)NC2CCOCC2)CCC1=O (stereo not shown) | 15%
19 | O=C(CN1CCCC1)Nc1ccccc1Sc1ccccc1 | 4.91%
20 | CCC(CC)C(=O)Nc1ccc(C(=O)c2ccccc2)cc1 | 22.6%
21 | Cl.OCC(CO)(CO)NCc1ccc(-c2ccccc2)cc1 | 9.58%
22 | CCOc1ccccc1N1CCN(c2nc3ccccc3nc2C(C#N)C(=O)OC)CC1 (stereo not shown) | 14.2%

Row | SMILES | hERG current change (%, negative = inhibition) at 1uM
23 | COc1ccccc1NC(=O)c1ccc2snnc2c1 | 2.46%
24 | Cc1c(NS(=O)(=O)c2cccc(C(=O)O)c2)c(=O)n(-c2ccccc2)n1C | 14.3%
25 | COCCN1CCN(C(=O)C2CCC(=O)N(CCc3ccccc3)C2)CC1 (stereo not shown) | 9.1%
26 | COc1cccc(NC(=S)N(CCc2ccc(OC)c(OC)c2)Cc2ccccn2)c1 | 0.386%
27 | c1ccc(-c2noc(-c3cccc4ccccc34)n2)nc1 | 9.47%
28 | O=C(c1cn(CC(=O)N2CCCC2)c2ccccc12)C1CCCCC1 | 12.5%
29 | COc1ccc(-n2nc(C(=O)NCC(=O)Nc3cccc(NC(C)=O)c3)c3ccccc3c2=O)cc1 | 8.77%
30 | Nc1scc2c(C(=O)N/N=C/c3ccc(Cl)cc3)nn(-c3ccccc3)c(=O)c12 | 12.5%
31 | CCOC(=O)C1CCN(C(=S)Nc2ccc(CC)cc2)CC1 | -3.06%
32 | O=C(c1cnn2c(C(F)(F)F)cc(-c3ccco3)nc12)N1CCc2ccccc2C1 | 8.21%
33 | O=C1NC(=O)C(=Cc2ccc(-c3ccc(Cl)cc3)o2)C(=O)N1 | 10.7%
34 | O=S(=O)(NC1CC1)c1ccc(S(=O)(=O)N2CCCC3(CCCCC3)C2)cc1 | 13.8%
35 | Cc1ccc(S(=O)(=O)N(C)C)cc1NC(=O)C(C)N(C)CCOc1ccc(Cl)cc1 (stereo not shown) | -1.99%
36 | CC1=CC(c2ccccc2)n2nc(N3C(=O)C4CC=CCC4C3=O)nc2N1 (stereo not shown) | 4.78%
37 | O=C(COC(=O)CNC(=O)c1ccccc1F)NC12CC3CC(CC(C3)C1)C2 | 7.94%
38 | CCC(CC)C(=O)N=C1SC2CS(=O)(=O)CC2N1CCc1ccc(OC)cc1 (stereo not shown) | -8.53%
39 | CCOP(=O)(OCC)/C(=N/OC(=O)c1ccc(OC)cc1)C(N)=O | 23.8%
40 | O=C(N/N=C/C=C/c1ccccc1)c1ccc(Br)cc1 | -0.71%
41 | O=C1CC(C(=O)Nc2ccccc2)C2(CCCC2)O1 (stereo not shown) | 14.2%
42 | COc1ccc(OC)c(C2CC(c3ccc(NS(C)(=O)=O)cc3)=NN2C(=O)c2ccccc2)c1 (stereo not shown) | -47.8%
43 | CCCNC(=O)C1CCN(c2ccc(S(=O)(=O)N3CCOCC3)cc2Cl)CC1 | 12.5%
